The results in this text go back to publication PMC4336329 (PLoS ONE, 2015).

Hit rate of the full screen: of about 310,000 compounds, about 2,200 (0.71%) showed an effect of 50% or more. Effects have a minus sign here. The list shows a part of the results. Where a SMILES comes first, the peptide text is derived from it.

In the test the target is human ether-à-go-go-related gene (hERG) potassium channel (human, UniProt Q12809). Put plainly: primary screen, population patch clamp on CHO cells stably expressing hERG.
human ether-à-go-go-related gene (hERG) potassium channel, sequence (Q12809 whole entry, looked up): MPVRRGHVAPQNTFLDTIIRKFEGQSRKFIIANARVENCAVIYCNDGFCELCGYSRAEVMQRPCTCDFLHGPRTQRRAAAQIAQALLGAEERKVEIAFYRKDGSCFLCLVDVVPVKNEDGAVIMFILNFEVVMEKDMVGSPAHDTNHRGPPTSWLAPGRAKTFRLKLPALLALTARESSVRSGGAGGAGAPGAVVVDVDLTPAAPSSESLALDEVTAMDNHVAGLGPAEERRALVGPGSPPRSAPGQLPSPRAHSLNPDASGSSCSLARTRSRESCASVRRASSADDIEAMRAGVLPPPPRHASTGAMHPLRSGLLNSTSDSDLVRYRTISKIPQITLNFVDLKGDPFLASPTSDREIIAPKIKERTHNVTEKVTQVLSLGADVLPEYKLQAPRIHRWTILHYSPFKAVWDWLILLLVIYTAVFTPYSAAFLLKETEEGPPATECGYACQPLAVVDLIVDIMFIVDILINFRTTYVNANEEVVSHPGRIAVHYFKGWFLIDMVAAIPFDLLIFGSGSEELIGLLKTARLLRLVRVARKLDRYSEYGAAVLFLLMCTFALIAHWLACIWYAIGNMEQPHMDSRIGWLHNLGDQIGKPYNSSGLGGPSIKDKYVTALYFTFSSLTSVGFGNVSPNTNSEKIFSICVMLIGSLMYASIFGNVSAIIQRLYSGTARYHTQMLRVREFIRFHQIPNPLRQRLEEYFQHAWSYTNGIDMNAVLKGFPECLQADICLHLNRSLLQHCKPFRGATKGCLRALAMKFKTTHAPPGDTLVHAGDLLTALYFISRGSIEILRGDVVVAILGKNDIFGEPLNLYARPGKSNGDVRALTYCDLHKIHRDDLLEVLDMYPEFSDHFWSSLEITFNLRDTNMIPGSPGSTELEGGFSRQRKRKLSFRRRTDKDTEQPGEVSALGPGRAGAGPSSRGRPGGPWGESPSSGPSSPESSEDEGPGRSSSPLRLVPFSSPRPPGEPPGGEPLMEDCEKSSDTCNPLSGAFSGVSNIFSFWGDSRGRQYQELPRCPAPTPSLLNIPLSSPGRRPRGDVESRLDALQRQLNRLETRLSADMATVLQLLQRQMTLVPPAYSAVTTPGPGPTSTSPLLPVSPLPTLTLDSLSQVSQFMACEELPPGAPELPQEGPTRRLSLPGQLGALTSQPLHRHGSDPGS
As for `COc1ccccc1NC(=O)NC(=O)c1ccccc1`, the “hERG current change (%, negative = inhibition) at 1uM” value is reported as 15.9%.

Take `COC(=O)C(CC(C)C)NC(=O)C(N)Cc1ccccc1.Cl` (stereo not drawn) (H-Phe-Leu-OMe; configuration not given here): the “hERG current change (%, negative = inhibition) at 1uM” value is listed as 4.33%. With `Cc1nc(N)sc1C(=O)N/N=C/c1ccco1`, the “hERG current change (%, negative = inhibition) at 1uM” value is reported as 19.5%.

In the case of `Cc1cc(C(C)(C)C)ccc1OCCOCCN1CCCC1`, the “hERG current change (%, negative = inhibition) at 1uM” value is reported as -0.816%. With `CCn1ccnc1CN(C)Cc1c(C(=O)N2C[C@@H](C)O[C@@H](C)C2)nc2ccc(Cl)cn12`, the “hERG current change (%, negative = inhibition) at 1uM” value was found to be 9.26%. To `CC(C)CN(C(=O)COC(=O)CCCc1c[nH]c2ccccc12)c1c(N)n(Cc2ccccc2)c(=O)[nH]c1=O` belongs 15.8%; to `CN1CCCN(C(=O)COc2cccc(C(F)(F)F)c2)CC1`, 6.46%. Turning to `COc1ccc(CCNS(=O)(=O)c2cc3c4c(c2)CC(=O)N4CCC3)cc1`, the “hERG current change (%, negative = inhibition) at 1uM” value was 6.26%. To `CC(C)(C)C1CCc2[nH]c3ccccc3c(=O)c2C1` (centres unmarked) belongs 7.87%; to `O=C(Cc1ccc(Cl)cc1)NC1CC1`, 19.8%.

As to `COCCn1c(=NC(=O)CN2C(=O)CCC2=O)sc2cc(S(N)(=O)=O)ccc21`, the “hERG current change (%, negative = inhibition) at 1uM” value is -4.74%. In the case of `COc1cccc(/C=C/C(=O)OCC(=O)c2c[nH]c3ccccc23)c1OC`, the “hERG current change (%, negative = inhibition) at 1uM” value was 6.4%. To `CCCCOc1ccc(C(=O)N2CCC(C)CC2)cc1` belongs 4.77%. Regarding `Cn1c(=O)c(=O)n(C)c2cc(S(=O)(=O)Nc3ccc(OC(F)(F)F)cc3)ccc21`, the “hERG current change (%, negative = inhibition) at 1uM” value came out at 4.01%. Under `C=C(C)/C=N/NC(=S)Nc1ccc(S(=O)(=O)N2CCOCC2)cc1` stands 4.89%; under `CCN(CCNC(=O)C1CCCN(S(=O)(=O)CC)C1)c1ccccc1` (centres unmarked), -0.0618%; under `COCCCNC(=O)Cn1cc(C(C)=O)c2ccccc21`, 17.6%. For the compound `CCN(CC)S(=O)(=O)c1cccc(NC(=O)COc2ncnc3sccc23)c1`, the “hERG current change (%, negative = inhibition) at 1uM” value stood at 3.76%.

As to `Cc1cccc(NC(=O)N2C3CCCC2CC(NC(=O)C(C)(C)C)C3)c1` (centres unmarked), the “hERG current change (%, negative = inhibition) at 1uM” value was determined as 7.54%. To `CCCc1nnc(SCC(=O)NC2CCCC2)n1CCOC` belongs 14.3%; to `CSCc1cc(N2CCOCC2)nc(SCc2ccc(Cl)c(Cl)c2)n1`, 11.9%; to `CCCCC(=O)NC(=S)Nc1cccc(Cl)c1N1CCCCC1`, 6.67%. For `CCN(CC)C(=O)CSc1nc(N)c2c3c(sc2n1)CC(C)CC3` (centres unmarked), the “hERG current change (%, negative = inhibition) at 1uM” value was 4.7%.

For `COc1ccccc1/C=N/n1c(C)nnc1-n1nc(C)cc1C`, the “hERG current change (%, negative = inhibition) at 1uM” value amounted to 8.73%. Under `CCc1cccc2c(C(=O)C(F)(F)F)cn(CC(=O)NCC3CCCO3)c12` (centres unmarked) stands 5.45%; under `CC(C)CNS(=O)(=O)c1ccc(NC(=O)Cn2nc(-c3ccc(F)cc3)ccc2=O)cc1`, 7.17%; under `Cc1cc(-c2nc(C)c(-c3nnc(SCC(=O)Nc4ccc(Cl)cc4)n3C)s2)no1`, 12.5%.

In the case of `CNc1ncnc2sc(-c3ccccc3)cc12`, the “hERG current change (%, negative = inhibition) at 1uM” value stood at 6.33%. Turning to `CCOc1ccc(-n2c(-c3ccccc3)c[n+]3c2CCC3)cc1.[Br-]`, the “hERG current change (%, negative = inhibition) at 1uM” value is -7.27%. Under `CCCCOc1ccc(C(=O)NCC(=O)N(C)CC(=O)Nc2ccc(N3CCOCC3)cc2)cc1` stands 1.37%; under `CCCCCCSc1ncc(C#N)c(N)n1`, 7.43%. To `CC(=O)N1N=C(c2ccccc2O)CC1c1cccs1` (centres unmarked) belongs 6.78%; to `Cc1c(C(=O)N2CCOCC2)sc2ncnc(N3CCc4ccccc4C3)c12`, -3.64%.

Regarding `CCc1nn(CC(=O)NCCC2=CCCCC2)c(=O)c2cc3cc(F)ccc3n12`, the “hERG current change (%, negative = inhibition) at 1uM” value was found to be 14.8%. Regarding `COc1ccccc1NS(=O)(=O)c1ccc2c(c1)NC(=O)CC(=O)N2`, the “hERG current change (%, negative = inhibition) at 1uM” value stood at 16.1%. To `CC(=O)N(CN1C(=O)C2C3C=CC(C3)C2C1=O)c1cccc(Cl)c1` (centres unmarked) belongs 4.72%; to `COc1ccccc1C(=O)Nc1ccc(N2CCN(Cc3ccccc3)CC2)cc1`, 4.75%. As to `Cc1cccc(NS(=O)(=O)c2cccc(C(=O)NCC3(N4CCCCC4)CCCCC3)c2)c1`, the “hERG current change (%, negative = inhibition) at 1uM” value is -45.1%. Under `CCC(=O)Nc1cccc(NC(=S)NC(=O)c2ccc(C)cc2)c1` stands 5.08%; under `Cc1ccccc1NC(=O)Cc1cn(C)c2ccccc12`, 14.1%. To `CNC(=O)c1cc(C)c(-c2ccccc2)s1` belongs -13.4%; to `COc1cc2nc(Cl)nc(N3CCOCC3)c2cc1OC`, 4.94%; to `Nc1nonc1-n1nnc(C(=O)N/N=C/C2CCCCC2)c1-c1ccccc1`, 12.2%.

On to `CC(C)n1c(N)c(C#N)c2ccc([N+](=O)[O-])cc2c1=O`, for which the “hERG current change (%, negative = inhibition) at 1uM” value is given as -6.91%. To `CN1CCc2nc(SCCOc3ccccc3)c(C#N)cc2C1` belongs -17%; to `COC(=O)c1ccc(CSc2nc3scc(-c4cccs4)c3c(=O)[nH]2)o1`, 11.2%; to `COC(=O)c1ccc(C(=O)N2CCCC(Nc3ccc(C(C)C)cc3)C2)nc1` (centres unmarked), -2.04%. Under `COc1ccccc1C(=O)NCCC(=O)N1CCN(S(=O)(=O)c2cccc(Cl)c2)CC1` stands -3.23%; under `CC(=O)N1c2ccc(S(=O)(=O)N(C)CC(=O)NC3CCCC3)cc2CC1C` (centres unmarked), 14.2%; under `COc1ccc(OCC(=O)Nc2ccc3c(c2)n(C)c(=O)n3C)cc1`, 6.3%. Under `CC1CCCN(c2ccc(F)cc2N)C1.Cl` (centres unmarked) stands 3.89%.

For `Cc1nc2c3ccccc3nc(NNC(=O)CCC(=O)N3CCN(c4ccccc4F)CC3)n2n1`, the “hERG current change (%, negative = inhibition) at 1uM” value is -2.37%. Under `O=C(N/N=C/C1CC=CCC1)c1ccc(O)cc1O` (centres unmarked) stands 13%; under `COc1ccc(C(=O)Nc2ccc(O)c3c(=O)cc(-c4cccc(Cl)c4)oc23)cc1`, 7.05%; under `Cn1c(=O)c2c(nc(Sc3n[nH]c(N)n3)n2Cc2ccccc2Cl)n(C)c1=O`, 12.2%.

On to `CC(=O)Nc1ccc(OS(=O)(=O)c2ccc(C(C)(C)C)cc2)cc1`, for which the “hERG current change (%, negative = inhibition) at 1uM” value is 13.3%. To `COC(=O)Nc1ccc(S(=O)(=O)N2CCCC(C(=O)Nc3cccnc3)C2)cc1` (centres unmarked) belongs 6.81%; to `CC1(C)CC(=O)c2cc(OCC(=O)O)ccc2O1`, 4.72%. To `CCN(CC)C(=O)c1ccc(NC(=O)COc2ccccc2F)cc1` belongs -4.33%; to `C=CCN(CC=C)S(=O)(=O)c1ccc(NC(=S)NC(=O)c2ccc(-c3ccccc3)cc2)cc1`, 9.01%; to `C=CCN(C(=O)c1csnn1)C(C(=O)NC1CCCCC1)c1ccc(C)cc1` (centres unmarked), 9%. Take `CC(C)(C)OC(=O)NCCCC[C@H](NC(=O)c1nc[nH]c1C(=O)NCC(=O)OCc1ccccc1)C(=O)OC(C)(C)C`: the “hERG current change (%, negative = inhibition) at 1uM” value was -0.947%. Under `Cc1ccc(-n2nnc(-c3ccnc4ccccc34)n2)cc1` stands 9.68%. For the compound `O=C(O)CNC(=O)c1ccccc1NC(=O)c1ccco1`, the “hERG current change (%, negative = inhibition) at 1uM” value was 5.8%. For the compound `Cn1nnnc1SCc1ccc(C(=O)Nc2ccc(Br)cc2)cc1`, the “hERG current change (%, negative = inhibition) at 1uM” value was determined as 14.3%. As to `COC(=O)N/N=C(\C)c1ccc(OC(F)F)cc1`, the “hERG current change (%, negative = inhibition) at 1uM” value was 7.6%.

For `COCCn1c(=O)[nH]c2cc(C(=O)N3CCN(c4cccc(C(F)(F)F)c4)CC3)ccc2c1=O`, the “hERG current change (%, negative = inhibition) at 1uM” value turned out to be 5.42%.

`COC(=O)/C=C1/SC(=NC(=O)c2ccccc2)NC1=O`: the “hERG current change (%, negative = inhibition) at 1uM” value is given as 3.08%. To `CCN[C@H]1CN(CCCOC)S(=O)(=O)c2sc(S(N)(=O)=O)cc21` belongs 7.28%. Under `CCn1c(=O)c([N+](=O)[O-])c(NCCCn2ccnc2)c2ccccc21` stands 11.2%; under `CC(CCc1ccccc1)NC(=O)CCNS(=O)(=O)c1ccccc1` (centres unmarked), 14.4%. As for `O=C(NCc1ccccc1)c1nc(-c2cccs2)no1`, the “hERG current change (%, negative = inhibition) at 1uM” value is recorded as -3.84%.

As for `Cc1ccc(C(=O)NCCc2nnc(SCC(=O)Nc3nc(-c4ccccc4)cs3)n2C)cc1`, the “hERG current change (%, negative = inhibition) at 1uM” value is reported as -0.384%. In the case of `O=C(O)c1cccc(NS(=O)(=O)c2ccc3c4c(cccc24)C(=O)N3)c1`, the “hERG current change (%, negative = inhibition) at 1uM” value was 20.1%. Under `O=C(NCc1ccco1)c1cc2c(s1)CSC2` stands 2.37%; under `Cl.OCCNCCOc1ccc(Cl)c(Cl)c1`, 1.67%. To `O=C(O)C(=O)O.c1ccc(COc2ccc(OCCCN3CCCC3)cc2)cc1` belongs -39.1%; to `COCCCn1c(=O)/c(=C\c2ccc(OC(F)F)c(OC)c2)s/c1=C(/C#N)C(=O)NCCOC`, 13.7%; to `COC(=O)c1sc2nc(CN3CCN(c4ccc(OC)cc4)CC3)[nH]c(=O)c2c1C`, 12.9%.

For the compound `CN(C)C(=O)C1CCC(=O)N1Cc1cccs1` (centres unmarked), the “hERG current change (%, negative = inhibition) at 1uM” value came out at 8.72%. To `CC1(C)C2C(Cl)(Cl)C2(C)c2ccccc2N1C=O` (centres unmarked) belongs 8.72%; to `CC(C)c1ccccc1NC1=CC(=O)CC(C)(C)C1`, 11.9%; to `O=C(Cc1ccccc1)NCCc1c[nH]c2ccccc12.O=C(O)C(=O)O`, 15.2%. In the case of `CC1(OC(=O)C2CCCC2)C(=O)C=C2C=C(c3ccsc3)N(C3CCCC3)C=C2C1=O` (centres unmarked), the “hERG current change (%, negative = inhibition) at 1uM” value is given as -12%. Under `Cc1cc(=O)oc2cc(OCC(=O)Nc3ccccc3C(=O)O)ccc12` stands 11%. With `O=C(CSc1nnc(-c2ccoc2)o1)N1CCOCC1`, the “hERG current change (%, negative = inhibition) at 1uM” value came out at 3.43%. Take `CCN(c1cccc(C)c1)C1C(=O)c2ccccc2N1C(C)=O` (centres unmarked): the “hERG current change (%, negative = inhibition) at 1uM” value worked out at 13.6%. Under `CC(C)(C)c1ccc(NC(=O)COC(=O)C2CCCC2)cc1` stands 11.4%. Under `c1coc(Cn2c(-c3ccco3)nc3ccccc32)c1` stands -2.63%.
